# Source: patent US20250268857A1 (priority 2020, published 2025)
# Test system: Salmonella enterica (NBRC3313)
# Type: cell-based
# Settings: 7,500 ppm agent diluted as appropriate
substance,measurement,value
zinc gluconate,Minimum Inhibitory Concentration,400 ppm
